Assay results: the supplement of paper PMC10126150
Values marked as one replicate rest on one cluster of the flow cell; about a third of the high ones do not repeat.
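Also: ATP exposure 15 min at 22 °C before imaging.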

Each sequence was assayed on ATP (assay: switch fluorescence ratio, 500 uM ATP over buffer (Cy3 cluster intensity, sum of 5 cycles each) (fold (ratio)); higher = stronger signal-on switching upon ATP binding; sequences stand for … in TCGTCGGCAGCGTCAGATGTGTATAAGAGACAGTTTTTTTTTTTTTTTTTTTTTTTTT…TC). Settings: aptamer strand: ATP DNA aptamer (quencher-CACCTGGGGGAGTATTGCGGAGGAAGG + anchor), 100 nM annealed; ATP concentration: 500 uM; one replicate.
Outline: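 Per cluster, summed Cy3 intensity from the target cycles was divided by that from the buffer cycles to give the fluorescence ratio, then averaged per switch-domain sequence. Clusters outside 100-1000 RFU were excluded. The Cy3-labelled switching-strand clusters, on a modified Illumina MiSeq flow-cell, were annealed to 100 nM quencher-labelled ATP aptamer and imaged in selection buffer, then after 15 min with 500 uM ATP at 22 °C, for five cycles with NaOH stripping and re-annealing between them.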
AAAAAACA gave a switch fluorescence ratio of 1.11.
Sequence AAAAAGGGC has a switch fluorescence ratio of 1.03.
For AAAAAGTTCC, the switch fluorescence ratio was 1.05.
AAAAATATGG was tested, and the switch fluorescence ratio was 1.05.
AAAAATATTA was tested, and the switch fluorescence ratio was 1.03.
AAAAATGCTG gave a switch fluorescence ratio of 1.05.
For AAAAATTACA, the switch fluorescence ratio was 1.03.
AAAACAATGA gave a switch fluorescence ratio of 0.982.
AAAACATAAT showed a switch fluorescence ratio of 0.94.
AAAACATTG gave a switch fluorescence ratio of 0.979.
Sequence AAAACCGGTA has a switch fluorescence ratio of 1.06.
AAAACGCTGC gave a switch fluorescence ratio of 1.07.
In the case of AAAACGGTAC, the switch fluorescence ratio is reported as 1.01.
For AAAACGTCCA, the switch fluorescence ratio was 1.01.
AAAAGAACA gave a switch fluorescence ratio of 0.978.
AAAAGATAA showed a switch fluorescence ratio of 0.972.
For AAAAGATGGT, the switch fluorescence ratio was 1.01.
For AAAAGCCTAT, the switch fluorescence ratio was 0.99.
For AAAAGTCGGA, the switch fluorescence ratio was 0.975.
For AAAATACTGC, the switch fluorescence ratio was 1.09.
For AAAATACTGG, the switch fluorescence ratio was 1.01.
Sequence AAAATCATAA has a switch fluorescence ratio of 0.991.
Sequence AAAATCTCAT has a switch fluorescence ratio of 0.957.
AAAATGGAGC was tested, and the switch fluorescence ratio was 0.955.
With AAAATTACTG the switch fluorescence ratio was 1.29.
With AAAATTGAAG the switch fluorescence ratio was 0.961.
For AAAATTGTGG, the switch fluorescence ratio was 0.991.
AAACAACTAC showed a switch fluorescence ratio of 1.09.
AAACACAGCG was tested, and the switch fluorescence ratio was 1.04.
AAACACCGAT was tested, and the switch fluorescence ratio was 1.06.
Sequence AAACACTCTA has a switch fluorescence ratio of 1.1.
Work on AAACAGGACT yielded a switch fluorescence ratio of 1.08.
Sequence AAACAGGTG has a switch fluorescence ratio of 4.
AAACCAGCTA showed a switch fluorescence ratio of 0.977.
AAACCCAGA gave a switch fluorescence ratio of 1.02.
For AAACCCCCC, the switch fluorescence ratio was 1.4.
AAACCGAATT gave a switch fluorescence ratio of 1.08.
With AAACCTCTAA the switch fluorescence ratio was 1.08.
Sequence AAACCTTAGA has a switch fluorescence ratio of 1.04.
With AAACCTTGGC the switch fluorescence ratio was 1.27.
For AAACCTTTTA, the switch fluorescence ratio was 1.04.
Work on AAACGAAATC yielded a switch fluorescence ratio of 1.07.
With AAACGCCG the switch fluorescence ratio was 1.05.
AAACGCTCCA showed a switch fluorescence ratio of 1.06.
AAACGGAGAC was tested, and the switch fluorescence ratio was 1.13.
Sequence AAACGGCCAC has a switch fluorescence ratio of 1.23.
Sequence AAACGGGGA has a switch fluorescence ratio of 1.02.
Sequence AAACGTAAGC has a switch fluorescence ratio of 1.07.
In the case of AAACGTATAG, the switch fluorescence ratio is reported as 1.03.
For AAACTCGGCC, the switch fluorescence ratio was 1.1.
AAACTGAAC showed a switch fluorescence ratio of 1.24.
AAACTGAAGC gave a switch fluorescence ratio of 1.08.
AAACTGCGGT showed a switch fluorescence ratio of 1.04.
With AAACTGTATC the switch fluorescence ratio was 1.04.
Sequence AAACTTAA has a switch fluorescence ratio of 1.04.
AAACTTACG gave a switch fluorescence ratio of 1.34.
For AAACTTATGT, the switch fluorescence ratio was 0.951.
AAAGACCCAA was tested, and the switch fluorescence ratio was 1.03.
AAAGACCCGC showed a switch fluorescence ratio of 1.04.
With AAAGACCGCG the switch fluorescence ratio was 0.96.
Sequence AAAGATAGAC has a switch fluorescence ratio of 1.01.
AAAGCCCAAG gave a switch fluorescence ratio of 1.12.
AAAGCGGGCG gave a switch fluorescence ratio of 1.05.
AAAGGACTAG was tested, and the switch fluorescence ratio was 1.03.
Sequence AAAGGCCATA has a switch fluorescence ratio of 1.01.
AAAGGGACA was tested, and the switch fluorescence ratio was 1.12.
For AAAGGGTACC, the switch fluorescence ratio was 1.02.
AAAGGGTCTG was tested, and the switch fluorescence ratio was 1.03.
In the case of AAAGGTATAG, the switch fluorescence ratio is reported as 1.03.
In the case of AAAGGTATCG, the switch fluorescence ratio is reported as 0.99.
In the case of AAAGGTGGTG, the switch fluorescence ratio is reported as 0.995.
AAAGTAAGGC was tested, and the switch fluorescence ratio was 1.02.
AAAGTAATTT showed a switch fluorescence ratio of 0.996.
Work on AAAGTACGCT yielded a switch fluorescence ratio of 1.06.
With AAAGTAGAC the switch fluorescence ratio was 0.991.
AAAGTAGAG was tested, and the switch fluorescence ratio was 0.989.
With AAAGTATAGG the switch fluorescence ratio was 0.927.
Work on AAAGTCCGGA yielded a switch fluorescence ratio of 1.04.
AAAGTCTCTT gave a switch fluorescence ratio of 1.
In the case of AAAGTCTTAG, the switch fluorescence ratio is reported as 0.941.
Work on AAAGTGAGGA yielded a switch fluorescence ratio of 1.02.
Sequence AAAGTGATA has a switch fluorescence ratio of 1.05.
Work on AAAGTTGTAC yielded a switch fluorescence ratio of 1.08.
Sequence AAAGTTTAGA has a switch fluorescence ratio of 1.01.
Sequence AAAGTTTTGC has a switch fluorescence ratio of 1.02.
In the case of AAATAAAGTG, the switch fluorescence ratio is reported as 0.947.
With AAATATCACA the switch fluorescence ratio was 1.03.
In the case of AAATATCAGT, the switch fluorescence ratio is reported as 1.
Sequence AAATATCGGC has a switch fluorescence ratio of 1.
In the case of AAATATGGCC, the switch fluorescence ratio is reported as 1.03.
AAATCACTTT gave a switch fluorescence ratio of 0.991.
With AAATCAGGGG the switch fluorescence ratio was 1.17.
For AAATCCCATG, the switch fluorescence ratio was 1.01.
For AAATCCGTT, the switch fluorescence ratio was 0.963.
For AAATCGCGG, the switch fluorescence ratio was 0.975.
In the case of AAATCGCTTT, the switch fluorescence ratio is reported as 1.03.
Sequence AAATCGTTTG has a switch fluorescence ratio of 1.02.
Work on AAATCTCTGT yielded a switch fluorescence ratio of 1.03.
For AAATCTGCCG, the switch fluorescence ratio was 0.968.
For AAATCTGGTT, the switch fluorescence ratio was 1.01.
In the case of AAATCTTCGA, the switch fluorescence ratio is reported as 1.02.
With AAATGAATGA the switch fluorescence ratio was 0.98.
AAATGCTAAG was tested, and the switch fluorescence ratio was 0.98.
AAATGGCTGC was tested, and the switch fluorescence ratio was 0.887.
AAATGGTGTT showed a switch fluorescence ratio of 1.06.
Work on AAATGTAACT yielded a switch fluorescence ratio of 1.05.
With AAATGTACTA the switch fluorescence ratio was 1.04.
AAATGTATGA was tested, and the switch fluorescence ratio was 0.98.
In the case of AAATGTCTCG, the switch fluorescence ratio is reported as 0.998.
With AAATGTTAGG the switch fluorescence ratio was 0.99.
Sequence AAATTAAGT has a switch fluorescence ratio of 0.994.
AAATTCTTTT was tested, and the switch fluorescence ratio was 0.996.
AAATTGCGCA showed a switch fluorescence ratio of 1.05.
Work on AAATTGGGAC yielded a switch fluorescence ratio of 0.98.
For AAATTTCAGT, the switch fluorescence ratio was 1.
AAATTTTCTG gave a switch fluorescence ratio of 1.04.
Work on AACAAACGCT yielded a switch fluorescence ratio of 1.22.
AACAAACTCG gave a switch fluorescence ratio of 1.29.
AACAAATACG was tested, and the switch fluorescence ratio was 1.55.
AACAAATTCA was tested, and the switch fluorescence ratio was 0.957.
Sequence AACAAATTCC has a switch fluorescence ratio of 1.05.
AACAACATTA showed a switch fluorescence ratio of 1.08.
AACAACGTA gave a switch fluorescence ratio of 1.04.
In the case of AACAACTTTG, the switch fluorescence ratio is reported as 0.984.
For AACAATATGC, the switch fluorescence ratio was 1.01.
AACAATTGTA showed a switch fluorescence ratio of 0.963.
With AACAATTTT the switch fluorescence ratio was 1.02.
AACACCTATA showed a switch fluorescence ratio of 1.01.
AACACGGGGA gave a switch fluorescence ratio of 1.03.
Work on AACACTACGC yielded a switch fluorescence ratio of 1.47.
Work on AACACTTGTA yielded a switch fluorescence ratio of 1.01.
For AACAGACTCG, the switch fluorescence ratio was 0.945.
AACAGAGCAA showed a switch fluorescence ratio of 2.39.
AACAGGGGCA showed a switch fluorescence ratio of 1.07.
Sequence AACAGGTCGG has a switch fluorescence ratio of 0.985.
Work on AACAGGTGAG yielded a switch fluorescence ratio of 1.05.
AACAGTGGTA was tested, and the switch fluorescence ratio was 1.
In the case of AACATAAGCA, the switch fluorescence ratio is reported as 1.03.
In the case of AACATCATGT, the switch fluorescence ratio is reported as 1.01.
Work on AACATCCTTA yielded a switch fluorescence ratio of 0.994.
AACATTCCAT gave a switch fluorescence ratio of 1.04.
For AACATTTGA, the switch fluorescence ratio was 1.03.
Sequence AACATTTGAT has a switch fluorescence ratio of 1.03.
For AACCAATTAG, the switch fluorescence ratio was 1.
AACCACGCGG gave a switch fluorescence ratio of 1.02.
AACCAGATAG showed a switch fluorescence ratio of 1.02.
AACCAGCAAT gave a switch fluorescence ratio of 5.02.
Work on AACCATACTG yielded a switch fluorescence ratio of 1.35.
AACCCACAAC was tested, and the switch fluorescence ratio was 1.29.
Work on AACCCACGA yielded a switch fluorescence ratio of 1.4.
Sequence AACCCAGATT has a switch fluorescence ratio of 1.
Work on AACCCCATTA yielded a switch fluorescence ratio of 1.03.
Sequence AACCCCTATT has a switch fluorescence ratio of 1.01.
AACCGACTCG was tested, and the switch fluorescence ratio was 1.96.
With AACCGACTGT the switch fluorescence ratio was 1.13.
Sequence AACCGCAGGG has a switch fluorescence ratio of 1.02.
In the case of AACCGCATTA, the switch fluorescence ratio is reported as 4.15.
AACCGCGGCC was tested, and the switch fluorescence ratio was 1.2.
AACCGCGTGC was tested, and the switch fluorescence ratio was 2.24.
In the case of AACCGCTTGA, the switch fluorescence ratio is reported as 1.14.
In the case of AACCGGGCGC, the switch fluorescence ratio is reported as 1.1.
AACCGGTAGG showed a switch fluorescence ratio of 1.04.
AACCGTTTTC showed a switch fluorescence ratio of 1.02.
In the case of AACCTACGT, the switch fluorescence ratio is reported as 1.59.
In the case of AACCTAGGAG, the switch fluorescence ratio is reported as 1.02.
Work on AACCTCACGA yielded a switch fluorescence ratio of 1.38.
With AACCTCGGTA the switch fluorescence ratio was 0.982.
AACGAATCCT showed a switch fluorescence ratio of 1.07.
AACGACAGCT showed a switch fluorescence ratio of 1.1.
Work on AACGAGGATA yielded a switch fluorescence ratio of 0.97.
AACGAGGTGC was tested, and the switch fluorescence ratio was 1.01.
AACGATGCCA showed a switch fluorescence ratio of 0.996.
AACGATGCGC gave a switch fluorescence ratio of 1.03.
Sequence AACGATTTGT has a switch fluorescence ratio of 1.05.
Sequence AACGCAACAG has a switch fluorescence ratio of 2.22.
Work on AACGCACTAT yielded a switch fluorescence ratio of 1.52.
AACGCGGCGT was tested, and the switch fluorescence ratio was 0.998.
AACGCTGGCA showed a switch fluorescence ratio of 1.01.
AACGCTTGAG was tested, and the switch fluorescence ratio was 0.995.
Sequence AACGGCCCCC has a switch fluorescence ratio of 0.995.
AACGGGGGAT gave a switch fluorescence ratio of 1.01.
Sequence AACGGTATAA has a switch fluorescence ratio of 1.09.
Work on AACGTAACCG yielded a switch fluorescence ratio of 1.06.
With AACGTAAGGG the switch fluorescence ratio was 2.04.
AACGTCATGC showed a switch fluorescence ratio of 1.16.
In the case of AACGTCTTCT, the switch fluorescence ratio is reported as 0.964.
Sequence AACGTGACGC has a switch fluorescence ratio of 1.22.
Sequence AACGTGGGGG has a switch fluorescence ratio of 0.976.
With AACGTGTTG the switch fluorescence ratio was 0.989.
AACGTTTCAT was tested, and the switch fluorescence ratio was 0.885.
For AACTAACGG, the switch fluorescence ratio was 1.33.
In the case of AACTAGACA, the switch fluorescence ratio is reported as 1.05.
With AACTAGGACT the switch fluorescence ratio was 1.03.
With AACTAGGCAG the switch fluorescence ratio was 0.993.
Sequence AACTATAGCA has a switch fluorescence ratio of 1.06.
In the case of AACTATCTT, the switch fluorescence ratio is reported as 0.959.
For AACTATGGAT, the switch fluorescence ratio was 1.03.
For AACTCATGA, the switch fluorescence ratio was 0.981.
AACTCCATTC gave a switch fluorescence ratio of 1.07.
AACTCGAGC was tested, and the switch fluorescence ratio was 0.985.
In the case of AACTCGGGTA, the switch fluorescence ratio is reported as 0.999.
